Measured values as given in PubChem BioAssay AID1030 (National Center for Advancing Translational Sciences (NCATS), 2008).
Out of some 220,000 compounds screened, about 16,000 (7.3%) were called active. The shares of active, inactive and inconclusive entries below differ from those in the screen. The call rests on the fitted dose curve; in most records, active means well fitted inhibition curve with a large enough effect (not every such curve was filed as active); inconclusive means small, poorly fitted or top-dose-only effect, or another doubt; inactive means no such curve, though single readings can be large or run the other way. No potency is given beside an inconclusive call; the fits are too rough.

target: Aldehyde dehydrogenase 1A1 (Homo sapiens) (UniProt P00352); assay: qHTS Assay for Inhibitors of Aldehyde Dehydrogenase 1 (ALDH1A1); conditions: Purified ALDH1A1, NADH fluorescence, propionaldehyde substrate; series mostly up to 75.3 µM
Potency means the concentration at half of the fitted maximal effect; tags describe the fitted curve by direction and shape.

UniProt P00352, sequence (P00352 whole entry, looked up): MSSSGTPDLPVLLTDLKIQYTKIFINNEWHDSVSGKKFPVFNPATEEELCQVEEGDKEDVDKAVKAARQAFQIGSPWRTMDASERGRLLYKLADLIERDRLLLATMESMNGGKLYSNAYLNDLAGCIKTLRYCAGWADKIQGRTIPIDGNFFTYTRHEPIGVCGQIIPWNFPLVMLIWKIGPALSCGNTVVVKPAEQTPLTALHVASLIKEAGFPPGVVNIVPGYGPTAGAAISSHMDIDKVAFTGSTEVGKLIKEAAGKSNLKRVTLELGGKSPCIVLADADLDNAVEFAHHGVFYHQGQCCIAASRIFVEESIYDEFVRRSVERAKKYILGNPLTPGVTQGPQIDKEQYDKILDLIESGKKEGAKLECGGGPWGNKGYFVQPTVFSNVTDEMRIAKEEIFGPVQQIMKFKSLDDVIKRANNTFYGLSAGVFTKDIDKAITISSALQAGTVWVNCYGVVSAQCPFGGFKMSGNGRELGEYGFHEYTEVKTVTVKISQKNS

Q: How did the Potency turn out when `Fc1ccc(Nc2ccnc(Nc3ccc(F)cc3)n2)cc1` was run?
A: inactive

Q: Which Potency does the source give for `COC(=O)c1ccc2c(c1)C(=O)N(C1CCCCC1)C2=O` here?
A: inconclusive [inhibitor, full curve]

Q: How did the Potency turn out when `O=C(O)CC1(CC(=O)NCc2cc(F)cc3c2OCOC3)CCCCC1` was run?
A: active: 10 µM

Q: How did the Potency turn out when `N#Cc1cccc(NC(=O)N2CCCC3(CCN(C(=O)c4ccco4)CC3)C2)c1` was run?
A: active: 22.4 µM

Q: With `CCOC(=O)c1sc(=NC(=O)/C=C/c2ccccc2)n(C)c1C` as the compound, how does the Potency read?
A: inactive

Q: With `C=C1c2cccc(C(F)(F)F)c2O[C@H](C(=O)OCC)[C@@H]1CCCCCC` as the compound, how does the Potency read?
A: inactive

Q: `O=C1c2cccc3cccc(c23)C(=O)N1CCCN(C(=O)c1cccs1)c1cccc(F)c1` was tested. Which Potency did it give?
A: inconclusive [inhibitor, single point]

Q: How did the Potency turn out when `CSc1ncccc1C(=O)OCC(=O)c1cc(C)n(CC2CCCO2)c1C` (configuration not stated) was run?
A: inactive

Q: Which Potency does the source give for `O=C(N/N=C/C(Cl)=C/c1ccccc1)c1ccco1` here?
A: inactive

Q: For `COc1cccc(/C=N/c2sc(Cc3ccccc3)c(C)c2C(N)=O)c1O`, which Potency is on record?
A: inconclusive [inhibitor, partial curve]

Q: For `O=C(CC12CC3CC(CC(C3)C1)C2)NC(=S)Nc1ccc(CN2CCOCC2)cc1`, which Potency is on record?
A: inconclusive [inhibitor, single point]

Q: With `O=C(NC(=S)Nc1nc2ccccc2s1)c1cccs1` as the compound, how does the Potency read?
A: active: 3.55 µM

Q: `O=C(Nc1cccnc1)c1ccccc1-c1nc(-c2ccccc2F)no1` was tested. Which Potency did it give?
A: active: 11.2 µM

Q: `COCCCNC(=S)Nc1ccccc1[N+](=O)[O-]` was tested. Which Potency did it give?
A: active: 22.4 µM

Q: `COc1cc(/C=C(\NC(C)=O)C(=O)Nc2cccc(O)c2)ccc1OC(C)=O` was tested. Which Potency did it give?
A: active: 0.0891 µM

Q: Which Potency does the source give for `COc1cccc(C(=O)Nc2ccc(NC(=O)c3ccco3)nc2)c1` here?
A: inconclusive [inhibitor, single point]

Q: `Cn1nnnc1SCC(=O)c1cccs1` was tested. Which Potency did it give?
A: inconclusive [inhibitor, single point]

Q: For `Cn1cccc1/C=C1\SC(=O)N(c2ccccc2)C1=O`, which Potency is on record?
A: inconclusive [inhibitor, partial curve]

Q: How did the Potency turn out when `COc1cc(SC)ccc1C(=O)NCc1ccc(C)cc1` was run?
A: inconclusive [inhibitor, single point]

Q: Which Potency does the source give for `COc1ccc(C(C)=O)cc1CN1C(=O)NC2(CCCCC2C)C1=O` (configuration not stated) here?
A: inconclusive [inhibitor, single point]

Q: How did the Potency turn out when `c1ccc(-c2ccc(-c3cnc4n3CCCCC4)cc2)cc1` was run?
A: inconclusive [inhibitor, single point]

Q: For `O=S(=O)(c1ccc(Br)cc1)N1CCN(c2cc(-c3ccccc3)nc3ncnn23)CC1`, which Potency is on record?
A: inconclusive [inhibitor, partial curve]

Q: How did the Potency turn out when `CCOc1ccccc1NS(=O)(=O)c1cccs1` was run?
A: inconclusive [inhibitor, partial curve]

Q: For `COc1ccc(N2CCN(C(=O)c3cccn4c(=O)c5ccccc5nc34)CC2)cc1`, which Potency is on record?
A: inconclusive [inhibitor, single point]

Q: `CC1(C)CC(=O)CC(=NCC(=O)O)C1` was tested. Which Potency did it give?
A: inconclusive [inhibitor, single point]

Q: With `CC1CCCC(NC(=O)COC(=O)c2ccc(S(=O)(=O)N3CCOCC3)cc2)C1C` (configuration not stated) as the compound, how does the Potency read?
A: inconclusive [inhibitor, single point]

Q: How did the Potency turn out when `COC(=O)c1ccc(Oc2nc(C(N)=O)cc(-c3ccccc3)n2)cc1` was run?
A: inconclusive [inhibitor, single point]

Q: With `O=C(NCc1cccs1)C(=O)c1cn(CC(=O)N2CCCC2)c2ccccc12` as the compound, how does the Potency read?
A: inconclusive [inhibitor, single point]

Q: For `CCOc1cc(/C=N\Nc2ccc([N+](=O)[O-])cc2)ccc1OCC(=O)Nc1ccc(C)c(C)c1`, which Potency is on record?
A: inactive

Q: How did the Potency turn out when `Cn1c(=O)cnc2cnc(Nc3ccccc3)nc21` was run?
A: inactive

Q: With `O=C(COC(=O)c1cccs1)NCc1ccco1` as the compound, how does the Potency read?
A: inactive

Q: How did the Potency turn out when `O=C(CCC1CCCCC1)Nc1c2c(nn1-c1ccc(F)cc1)CS(=O)(=O)C2` was run?
A: active: 10 µM

Q: For `CC1(C)CNc2cc([N+](=O)[O-])ccc2S1`, which Potency is on record?
A: inactive

Q: For `COc1ccc(Cl)c2c1[nH]c1nc(SCc3cccnc3)nnc12`, which Potency is on record?
A: inactive

Q: With `COc1ccc(CN(C(=O)CNC(=O)c2ccco2)C(C(=O)NC2CCCC2)c2ccco2)cc1` (configuration not stated) as the compound, how does the Potency read?
A: active: 0.398 µM

Q: For `CCCN(CCC)C(=O)CSc1nc2ccccc2c(=O)n1CC1COc2ccccc2O1` (configuration not stated), which Potency is on record?
A: active: 11.2 µM

Q: Which Potency does the source give for `CCOc1ccc(C(=O)NC2CCN(CC(=O)NCc3cccs3)CC2)cc1` here?
A: inactive

Q: `Cc1ccc(NCc2ccco2)cc1C` was tested. Which Potency did it give?
A: inconclusive [inhibitor, single point]

Q: Which Potency does the source give for `COc1cccc(CNCCNC(=O)c2ccco2)c1OC` here?
A: inconclusive [inhibitor, single point]

Q: For `COc1ccc(N2C(=O)S[C@@H]3CS(=O)(=O)C[C@@H]32)cc1`, which Potency is on record?
A: inactive

Q: Which Potency does the source give for `CC1(C)Cc2cccc(Oc3ccc(S(=O)(=O)N4CCCC4)cn3)c2O1` here?
A: inactive

Q: For `CCc1ccccc1NC(=O)/C(C#N)=C/c1ccc(Sc2ccccc2)o1`, which Potency is on record?
A: inactive

Q: For `Nc1nc2n(n1)C(=O)CC(c1ccccc1)N2` (configuration not stated), which Potency is on record?
A: inactive

Q: For `COc1cccc(C(=O)Nc2ccc(NC(=O)C(C)C)nc2)c1`, which Potency is on record?
A: inconclusive [inhibitor, single point]

Q: `O=S(=O)(c1ccc(Br)cc1)c1nc(-c2ccccc2)oc1NCc1cccnc1` was tested. Which Potency did it give?
A: inconclusive [inhibitor, partial curve]

Q: With `O=C(c1ccccc1)N1CCN(C2CCCCCC2)CC1` as the compound, how does the Potency read?
A: inactive

Q: With `O=C(O)CC1(CC(=O)Nc2ccc3ccccc3c2)CCCCC1` as the compound, how does the Potency read?
A: inconclusive [inhibitor, single point]

Q: Which Potency does the source give for `COC(=O)c1c(N)n(-c2ccc(N3CCOCC3)cc2)c2nc3ccccc3nc12` here?
A: active: 17.8 µM

Q: `COC(=O)N[C@H](C[N+](=O)[O-])C(C)(C)C` was tested. Which Potency did it give?
A: inactive

Q: How did the Potency turn out when `CCOc1ccc(N(CC(=O)NCc2ccc(OC)cc2)S(=O)(=O)c2c(C)noc2C)cc1` was run?
A: inactive

Q: `Cc1oc2cc(O)cc(O)c2c(=O)c1-c1ccc2c(c1)OCCCO2` was tested. Which Potency did it give?
A: active: 15.8 µM

Q: With `COCCNC(=O)CSc1cc(-c2ccccc2)c2ccc(OC)cc2n1` as the compound, how does the Potency read?
A: inconclusive [inhibitor, single point]
